Results are given in words; binding and its absence hold for the method and conditions named. Some entries that bind do so weakly or less than the wild type.
Target: NQO1 protein (UniProt P15559)
Experiment: mobility shift on non-reducing SDS-PAGE with silver staining; NQO1 protein reacted with increasing concentrations of DBD peptide; electrophoresis on reducing and non-reducing gels; silver staining; both purified

Protein sequences, listed by entry. Tags and fused reporters are not part of them.
UniProt P15559: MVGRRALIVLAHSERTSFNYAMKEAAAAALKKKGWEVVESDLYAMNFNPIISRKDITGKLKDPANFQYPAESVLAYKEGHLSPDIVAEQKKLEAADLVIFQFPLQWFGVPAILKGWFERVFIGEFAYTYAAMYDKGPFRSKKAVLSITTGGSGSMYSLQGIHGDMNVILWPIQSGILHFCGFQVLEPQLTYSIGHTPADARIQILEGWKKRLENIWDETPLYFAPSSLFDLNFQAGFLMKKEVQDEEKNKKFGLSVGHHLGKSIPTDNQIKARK

binding: binds
Binder: EEKRRIRRERNKMAAAKCRNRRRELT (N-terminal acetyl (Ac-); C-terminal amide (-NH2)) [NQO1-binding c-Fos (DBD) peptide]

Reference: article PMC9925316
